Test results reported in a compilation of properties of binary mixtures (doi:10.1016/j.jct.2006.07.001).
The densities may have been worked out from excess volumes.

Assay: xn = mol fraction of the nth substance listed
Conditions: 101 kPa

CCCC[n+]1ccn(C)c1.F[P-](F)(F)(F)(F)F + O=Cc1ccccc1
x2 = 0
Conditions	mass density [kg/m3]
298.15 K	1370
303.15 K	1366
308.15 K	1361
313.15 K	1357

OCc1ccccc1 + CCCC[n+]1ccn(C)c1.F[P-](F)(F)(F)(F)F
mass density [kg/m3]
Conditions	298.15 K	303.15 K	308.15 K	313.15 K
x1 = 0.0984	1353.6	1349.4	1345.3	1341.1
x1 = 0.1995	1335.4	1331.3	1327.1	1323
x1 = 0.2997	–	1311.3	1307.2	1303
x1 = 0.3986	1293.3	1289.2	1285.1	1281
x1 = 0.4988	1267.8	1263.7	1259.6	1255.5
x1 = 0.5988	1238.3	–	1230.2	–
x1 = 0.6999	1203	–	1194.9	1190.8
x1 = 0.8002	1160.8	1156.8	1152.7	1148.7
x1 = 0.9011	1108.6	1104.7	1100.7	1096.7
x1 = 0.9498	1079	1075.1	1071.2	–
x1 = 1	–	1041	1037.1	1033.2

O=Cc1ccccc1 + CCCC[n+]1ccn(C)c1.F[P-](F)(F)(F)(F)F
mass density [kg/m3]
Conditions	298.15 K	303.15 K	308.15 K	313.15 K
x1 = 0.1004	1354.6	1350.7	1346.5	1342.3
x1 = 0.2023	1337.8	1333.8	1329.6	–
x1 = 0.2989	–	1315.5	1311.3	1307.1
x1 = 0.4017	1297.3	1293.1	1288.9	1284.7
x1 = 0.4882	1275.7	1271.4	1267.2	1263
x1 = 0.5974	1243.6	1239.4	1235.2	1231
x1 = 0.7004	–	–	1199	1194.7
x1 = 0.7997	1164.9	1160.7	1156.5	1152.2
x1 = 0.8966	1113.6	1109.5	1105.1	–
x1 = 0.9477	1081.4	1077.3	1073	1068.6
x1 = 1	1043.7	–	–	–

CCCC[n+]1ccn(C)c1.F[P-](F)(F)(F)(F)F + OCc1ccccc1
x2 = 0
Conditions	mass density [kg/m3]
298.15 K	1370
308.15 K	1361
313.15 K	1357
